The values below come from the supplement of paper PMC7826260.

What all share (experiment): uncleaved DNA left, log2 of reads against the no-enzyme library (log2 ratio); higher = less cleavage (more negative = more Rep cleavage of the k-mer); sequences stand for … in CTCGTCCG…ACCGGAGA
For assay [1], the system named is T1, Rep nickase domain of Muscovy duck circovirus.
T1 sequence (residues 1-111 of Rep, tag left off): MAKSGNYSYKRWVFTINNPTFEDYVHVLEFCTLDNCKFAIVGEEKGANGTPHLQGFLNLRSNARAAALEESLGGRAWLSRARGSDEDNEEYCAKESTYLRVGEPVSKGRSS
As for the experimental part: (§1)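 A pool of 90-nt single-stranded DNAs with seven random bases just before the constant AC of the nick site (name = the seven bases) was cut by 3 µM recombinant His6-SUMO-tagged Rep nickase domain (300 nM DNA, 50 mM HEPES pH 8.0, 50 mM NaCl, 1 mM MnCl2, 1 h, 37 °C, three replicates). Uncut DNA was amplified and sequenced.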

Assay [2] has as its system T2, Rep nickase domain of banana bunchy top virus.
T2 sequence (residues 1-94 of Rep, tag left off): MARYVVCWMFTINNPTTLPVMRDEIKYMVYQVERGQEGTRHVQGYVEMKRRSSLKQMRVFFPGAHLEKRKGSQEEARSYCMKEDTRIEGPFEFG
The method, then: as §1
The subject of assay [3] is T3, Rep nickase domain of cabbage leaf curl virus.
T3 sequence (residues 1-116 of Rep, tag left off): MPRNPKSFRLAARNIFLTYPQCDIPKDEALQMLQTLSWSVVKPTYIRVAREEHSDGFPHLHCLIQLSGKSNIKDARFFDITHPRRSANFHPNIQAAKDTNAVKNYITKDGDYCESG
The method, then:
as §1

Assay [4] relates to T4, Rep nickase domain of chickpea chlorotic dwarf virus.
T4 sequence (residues 1-124 of Rep, tag left off): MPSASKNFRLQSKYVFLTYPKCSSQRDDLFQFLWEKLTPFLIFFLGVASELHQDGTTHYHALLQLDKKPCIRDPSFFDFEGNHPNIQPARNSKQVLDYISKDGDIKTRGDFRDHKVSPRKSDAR
As for the experimental part: as §1
Assay [5] concerns T5, Rep nickase domain of faba bean necrotic yellows virus.
T5 sequence (residues 1-98 of Rep, tag left off): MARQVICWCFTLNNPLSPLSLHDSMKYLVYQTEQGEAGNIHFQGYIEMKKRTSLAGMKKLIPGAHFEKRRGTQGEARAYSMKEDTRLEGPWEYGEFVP
As for the experimental part:
as §1

The test system of assay [6] is T6, Rep nickase domain of maize striate mosaic virus.
T6 sequence (residues 1-117 of Rep, tag left off): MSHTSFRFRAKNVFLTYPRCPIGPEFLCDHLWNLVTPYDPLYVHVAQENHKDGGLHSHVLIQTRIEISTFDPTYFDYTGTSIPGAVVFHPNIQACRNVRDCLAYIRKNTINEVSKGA
The method, then: as §1
Assay [7] relates to T7, Rep nickase domain of porcine circovirus 2.
T7 sequence (residues 2-116 of Rep, tag left off): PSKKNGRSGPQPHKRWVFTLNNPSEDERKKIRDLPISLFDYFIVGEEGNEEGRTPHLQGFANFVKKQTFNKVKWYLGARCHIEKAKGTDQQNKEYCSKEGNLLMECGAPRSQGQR
As for the experimental part: as §1
Assay [8] has as its system T8, Rep nickase domain of tomato golden mosaic virus.
T8 sequence (residues 1-124 of Rep, tag left off): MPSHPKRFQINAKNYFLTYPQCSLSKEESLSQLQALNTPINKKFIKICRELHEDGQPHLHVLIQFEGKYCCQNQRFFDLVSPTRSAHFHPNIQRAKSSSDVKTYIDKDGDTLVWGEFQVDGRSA
The method, then:
as §1

Assay [9] concerns T9, Rep nickase domain of tomato yellow leaf curl virus.
T9 sequence (residues 1-136 of Rep, tag left off): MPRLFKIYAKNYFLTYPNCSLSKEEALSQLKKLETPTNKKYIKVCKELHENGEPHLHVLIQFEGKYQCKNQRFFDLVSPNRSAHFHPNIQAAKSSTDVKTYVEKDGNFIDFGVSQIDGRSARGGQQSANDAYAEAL
As for the experimental part:
as §1

In assay [10] the test system is T10, Rep nickase domain of wheat dwarf virus.
T10 sequence (residues 1-137 of Rep, tag left off): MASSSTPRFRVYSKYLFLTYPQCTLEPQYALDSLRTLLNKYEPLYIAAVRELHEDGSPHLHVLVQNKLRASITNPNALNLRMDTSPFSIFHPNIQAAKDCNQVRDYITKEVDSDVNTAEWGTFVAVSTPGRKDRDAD
The method, then:
as §1

This is one part of the list. Viral Rep nickase domains cut single-stranded DNA in vitro for 1 h at 37 °C with 3 µM enzyme; only the middle of the 90-letter strands is printed. Uncut reads are compared with the no-enzyme pool on a log2 scale; strong cutting gives strongly negative numbers. There is no active / inactive call. Because reads are shares of a total, they shift together; values above 0 arise when much of the pool is cut.

In the case of GTAACTA, the “uncleaved DNA left (log2)” value in [1] was 0.102; in [2] it was 0.124; in assay [3], 0.358; in [4], 0.736; in [5] it was 0.0976; in [6], 1.68. Also, the “uncleaved DNA left (log2)” value in assay [7] amounted to 0.114; in [8], 0.228; in assay [9], 0.189; in assay [10], 0.149.

As to AAAGTTT, the “uncleaved DNA left (log2)” value in [1] is 0.157; in assay [2] it was -0.0334; in [3] it was -2.4; in [4], -2.43; in assay [5], 0.111; in assay [6], -0.0741. In addition, the “uncleaved DNA left (log2)” value in assay [7] is -0.944; in [8], -0.181; in [9], 0.0981; in assay [10], -0.64.

Regarding TCATGGA, the “uncleaved DNA left (log2)” value in assay [1] was 0.0689; in assay [2], -0.00798; in assay [3], -0.00785; in assay [4] it was 0.00883; in [5], -0.0552; in assay [6], -0.677. Moreover, the “uncleaved DNA left (log2)” value is 0.0572 in assay [7], -0.00115 in assay [8], -0.0341 in assay [9] and -0.0514 in assay [10].

As to GGCCAGT, the “uncleaved DNA left (log2)” value in assay [1] worked out at 0.122; in [2], 0.196; in assay [3] it was 0.585; in assay [4], 1.42; in [5], 0.0436; in assay [6] it was 1.95. Further, the “uncleaved DNA left (log2)” value in [7] came to 0.146; in assay [8], 0.0545; in assay [9] it was 0.0795; in assay [10], 0.17.

CCTCAGC: the “uncleaved DNA left (log2)” value in assay [1] was 0.097; in assay [2], 0.138; in [3] it was -0.106; in assay [4], -0.423; in assay [5] it was -0.0459; in [6] it was -0.61. For the same sequence, the “uncleaved DNA left (log2)” value in assay [7] turned out to be 0.266; in assay [8] it was 0.0587; in [9], 0.177; in [10] it was 0.0954.

As to CCAGCAT, the “uncleaved DNA left (log2)” value was 0.0774 in assay [1]; -0.0156 in assay [2]; -0.0864 in [3]; -0.327 in assay [4]; -0.000398 in assay [5]; -0.586 in assay [6]. Besides, the “uncleaved DNA left (log2)” value is 0.0749 in assay [7], -0.000586 in assay [8], -0.0141 in [9] and -0.0119 in assay [10].

As to GTGCACC, the “uncleaved DNA left (log2)” value amounted to 0.0289 in assay [1]; 0.0608 in assay [2]; 0.223 in [3]; 0.817 in [4]; 0.012 in assay [5]; 1.71 in assay [6]. Moreover, the “uncleaved DNA left (log2)” value in [7] worked out at 0.0435; in [8] it was 0.0858; in assay [9], 0.0963; in assay [10] it was 0.0464.

Consider AGCGCTC, for which the “uncleaved DNA left (log2)” value in assay [1] amounted to 0.0693; in [2] it was 0.0309; in assay [3] it was 0.097; in [4] it was 0.534; in assay [5] it was 0.0665; in assay [6], 1.14. In addition, the “uncleaved DNA left (log2)” value in assay [7] was 0.0166; in assay [8], 0.0884; in assay [9], -0.0605; in assay [10], -0.0241.

On to TCCTATC, for which the “uncleaved DNA left (log2)” value is 0.185 in assay [1]; -0.0684 in assay [2]; 0.264 in assay [3]; -0.0108 in assay [4]; 0.0951 in assay [5]; -0.446 in assay [6]. The “uncleaved DNA left (log2)” value in [7] is 0.104; in [8], -0.0238; in assay [9] it was 0.152; in assay [10] it was 0.241.

Take ATTCACT: the “uncleaved DNA left (log2)” value in assay [1] was -2.9; in assay [2] it was -1.56; in [3] it was -0.242; in assay [4], -2.63; in assay [5], -0.0663; in assay [6] it was -0.771. Further, the “uncleaved DNA left (log2)” value in assay [7] was -3.48; in [8] it was -0.105; in [9], 0.0122; in assay [10], -0.122.

Take CCCGGAT: the “uncleaved DNA left (log2)” value in assay [1] is -0.067; in [2], 0.0635; in assay [3], 0.387; in [4] it was 1.58; in [5], 0.0825; in assay [6] it was 1.83. In addition, the “uncleaved DNA left (log2)” value in assay [7] was 0.135; in assay [8], -0.029; in assay [9] it was -0.0667; in assay [10], 0.0155.

In the case of GTTTCCT, the “uncleaved DNA left (log2)” value amounted to 0.0174 in assay [1]; 0.0349 in assay [2]; 0.448 in [3]; 0.618 in assay [4]; 0.0649 in assay [5]; 1.75 in [6]. Also, the “uncleaved DNA left (log2)” value in assay [7] is -0.171; in [8], 0.0659; in [9] it was 0.11; in assay [10], 0.213.

For TCCAGGA, the “uncleaved DNA left (log2)” value in assay [1] is -0.0138; in assay [2], -0.0745; in assay [3], 0.137; in [4], 0.434; in [5] it was 0.0417; in [6], -0.0837. The “uncleaved DNA left (log2)” value in assay [7] was 0.146; in [8], 0.0972; in assay [9] it was -0.0112; in [10], -0.014.

Consider CAATGTG, for which the “uncleaved DNA left (log2)” value in assay [1] is 0.117; in [2], 0.0053; in [3] it was -0.661; in assay [4], 0.0368; in [5], 0.142; in assay [6], -0.825. Also, the “uncleaved DNA left (log2)” value in [7] is 0.177; in [8], 0.185; in assay [9], 0.162; in assay [10], -0.0809.

As for GTTGGAT, the “uncleaved DNA left (log2)” value was 0.0446 in [1]; -0.00352 in assay [2]; 0.317 in [3]; 1.39 in [4]; -0.0443 in [5]; 1.85 in assay [6]. In addition, the “uncleaved DNA left (log2)” value is 0.192 in assay [7], 0.193 in assay [8], -0.0088 in [9] and 0.0192 in [10].
